From the RNAGym collection of RNA variant scans (doi:10.7554/elife.90254)
The source gives no read counts; variants with many changes may rest on few reads.

B1: LINE1-full (parent)
chain: UACGUAGGUGGUUUUCCCCUGAUAGUGCUAAGGGGGCCUGGAAGUUUGGACUGGGCAGAGCUCAACACAGCGUGGCAAAGUGGCUGUGGCUAGACUGCCUCUCUGGAUUCCUCGUCACUCAGCAGGGCAUCUCUGAGAGAAAUGCC

Variants of: B1
Assay: self-cleavage, relative activity (ratio to wild type); higher = more cleavage; in vitro, sequencing; the parent is a self-cleaving ribozyme

Row | Variant | self-cleavage
1 | U14C U91A U100C C118U A124G | 0.14
2 | U15C A92G A141G | 0.03
3 | U14C U62C U87C U96A C110U | 0.19
4 | U14C U73A U132A | 1.72
5 | U14C U112C U132C A138G | 1.53
6 | U15C C56G A77G A136G | 0
7 | U15C A57U A59U U96A G127A | 0.29
8 | U15C U20C A57U U102C | 0.09
9 | U15C U20A U47A U134C | 0.98
10 | U14G G33U A64G | 0.21
11 | U15C U46C U62C C146U | 0.12
12 | U15C A57G A64U C71U U85A U100C | 0
13 | U15C A43C U85C | 0.2
14 | U15A A42G G125A U134C A142G | 1.31
15 | U15A A78G C128U | 0.84
16 | U15C A124U A129G | 1.23
17 | U15C U45C U87C | 0.27
18 | U15C U20A C61U G137U | 0.07
19 | U15C U23C A57G | 1.63
20 | U15C A31G A57G A67G U132C | 0.84
21 | U15A U47A U96C U112C | 0.21
22 | U15C A92G U112C | 0.22
23 | U15C U45C A129C C131A | 1.65
24 | U15C U20A U52A | 1.8

Row | Variant | self-cleavage
25 | U15C A50G C63U U100A A121G | 0.44
26 | U14C U87C U115A | 0.18
27 | U15C U52C U85C | 0.3
28 | U15C U62C A140G | 0
29 | U15C U46C A64G A69C | 0
30 | U15A A43G A57G U85C | 0
31 | U15C A64G G114A | 0.27
32 | U15C A22G U26C U39A U47A C98U | 0.45
33 | U15A U23A U62C | 0.06
34 | U15C G40U A65G C146U | 0
35 | U15C G33A U46A A64G U102C A117G | 0.69
36 | U15A U73C U119C U143C | 1.4
37 | U15C A65G U85A A94G A121U | 0.08
38 | U15A A59G U96A A121U G125U | 0
39 | U15C A124C U134A A142G | 0.88
40 | U14C U119C U130C | 1.74
41 | U15C U20C U29G A65G A69U | 0.84
42 | U15A U46A G83A A92G A107G | 0.04
43 | U14G C71U U132C | 1.28
44 | U15C A67G U115A | 0.68
45 | U15C G40U G126A | 1.45
46 | U15C G34A U47A U85C A140G | 0.09
47 | U15C U62C A94G U132A A140G | 0.44
48 | U15C U81C G127A | 0.99

Row | Variant | self-cleavage
49 | U15C G40U U46A | 0.95
50 | U15C A64U A107G U134C | 0.55
51 | U14G U39C U73G | 1.58
52 | U15A U47A A79U G125A | 1.49
53 | U15A U39A A43G U45G A69U | 0.24
54 | U14C U104A A129G | 1.22
55 | U15C U62C A107G A117G | 0
56 | U14G U20A U46A U143A | 0.48
57 | U15C U46C A136G A138U | 1.61
58 | U14C U100C G105U A136G A138G | 2.43
59 | U15C U46C A65G U119A | 0
60 | U15C U52C U143A | 1.5
61 | U15A A121U U143C | 1.28
62 | U15C A30G U47C U96C | 0.57
63 | U15C A78G G139A | 1.25
64 | U15C A78G U108A U143C | 1.09
65 | U15C U47C C71G U134C | 0.77
66 | U15C C19U U104C G114A U134C | 1.76
67 | U14C U108C A136U | 0
68 | U15C U23A A94G U115A A141G | 0
69 | U14G A94G A141G | 0.27
70 | U14C U102C A140G | 1.01
71 | U15C U39C A77G | 2.51
72 | U15C U26G U39C A138G | 1.45

Row | Variant | self-cleavage
73 | U15C U26C C128U | 1.75
74 | U15C A43G U91C U115C | 1.84
75 | U15C A59G A124G G126A | 0.27
76 | U15C A50U A94G U112C U115C | 1.15
77 | U14C U73A C113U | 1.22
78 | U14G U85C U132A A142G | 0.18
79 | U15C U52C A57G A142G | 0
80 | U15C A69G A92G | 0
81 | U14G A79G U102C A117U | 1.72
82 | U15A U87C A124U A129G U134C | 0
83 | U15C U20C A124U | 1.15
84 | U15C A43G U109A | 1.17
85 | U15A G27A U29C A43G A77U | 0.48
86 | U14C U73A U85A | 0.05
87 | U15A C68U A77U | 0.07
88 | U15C U20C U130A | 1.44
89 | U14C U85C A107G | 0.39
90 | U15A U46C U112C | 0.38
91 | U15A A43G A138G | 1.71
92 | U15C A65G A124C C133A | 0.38
93 | U15C G83A A129G | 1.13
94 | U14C U85A G126C | 0.28
95 | U15A A31G G35A U73C U130C | 1.6
96 | U15C U20C A65G A129U U130A | 0.56

Row | Variant | self-cleavage
97 | U15C A78U A121G | 2.42
98 | U15A C18U U73A U81A | 1.18
99 | U15C A42G G72A | 1.07
100 | U15A U87A A142G | 0
101 | U15A U62A A79C U132C | 0.19
102 | U15C A79G U112C | 1.82
103 | U15A A30G U52G | 1.38
104 | U14C U104C U130C U132A | 1.97
105 | U15C A50G U130C U143C | 2.3
106 | U15A U20C G41A U100C U104A | 1.86
107 | U14C U134C G135A | 1.27
108 | U14G U45A U108A | 0.66
109 | U14C U81A A124G A141G C146U | 2.19
110 | U15C A43G U87A | 0.3
111 | U15C A65U C120U | 0.22
112 | U15A A77G U132G | 0.49
113 | U15C U20C A107G | 1.43
114 | U15C U26C A64U U102C | 0.83
115 | U15A A59G U62C G105A U132A A142C | 0.09
116 | U15C A42U A67U | 0.08
117 | U15C U29A A57G C71U A107G | 0.57
118 | U15C U39A A69G U119C | 0.59
119 | U15A A64G A92G A124U | 0
120 | U15C A22G A42U A59U A69U | 0.11

Row | Variant | self-cleavage
121 | U14C U85C A94C | 0.19
122 | U14C U96C U130G U132A | 0.2
123 | U15C U52C A69G U143C | 0
124 | U14G A65G A136G | 0.49
125 | U15A A65U C118A | 0.14
126 | U15C A121C A140U | 1.15
127 | U15A U73C G137U | 0.6
128 | U15C A124U A138G | 1.27
129 | U15A G58A U87A A142G | 0.04
130 | U14G A43G A64G A67U | 0
131 | U15C C84U A92U | 0.2
132 | U15A A30G A64G C146U | 0
133 | U15A U23C U26A U100C | 1.56
134 | U15A A77C U108C | 0.2
135 | U15C C61A G80U A129G | 0.02
136 | U15A A78G U108A U109C G144A | 1.31
137 | U15A U81C C113U U115C | 0.33
138 | U15A G86A A124G | 0.01
139 | U15C U20C A30G A78G | 0.81
140 | U14C U81A U87C A92G A124G A141G | 1.15
141 | U15C G21A U100C | 0
142 | U15C C51A U132C | 1.78
143 | U15C U20A U45G | 0
144 | U15A U52C A142G | 0.92

Row | Variant | self-cleavage
145 | U15C U39C U47C C61A U81C A94G | 0.24
146 | U14C U91A U119G | 0.62
147 | U15C U23C A94G U102C | 0
148 | U15C A57G G89A | 0.09
149 | U15A G25C U102C A129G G139A U143A | 0
150 | U15C G55A U62C U87C A136U | 0.06
151 | U15C A65G U87A A129G | 0.05
152 | U15C A43G A78G | 0.72
153 | U15C U46C U73C G75A U96C | 0.23
154 | U15C A22G A67G A69G | 0.34
155 | U15A A50U U115C | 1.64
156 | U15A U29A G88A | 0
157 | U15C U47C U130C | 1.53
158 | U15C C19U A42U | 0.9
159 | U15A U96C U109C U132C | 0.44
160 | U15C U46C U134C | 2.83
161 | U15C U26C U85C A136U A141G | 0.88
162 | U15A U26A U46C C101U | 0.93
163 | U15C C18U C19U A22G A50U | 1.41
164 | U15A A22G U26C G53A A57G U115A A140G U143C | 0
165 | U15A G36C A117G A129G | 1.91
166 | U15C A57U U62C | 0
167 | U15C U23C A77G A136G U143C | 0.88
